Results as given in patent US20120148575A1 (published 2012).

Experiments:
[1] = target: T1, recombinant human IL-5Rα, carrier-free soluble extracellular domain (R+D Systems) (human, UniProt Q01344 21-342); test: SPR; Experiment 2, capture format, instrument T100, mean of 6.52/6.18
T1 chain: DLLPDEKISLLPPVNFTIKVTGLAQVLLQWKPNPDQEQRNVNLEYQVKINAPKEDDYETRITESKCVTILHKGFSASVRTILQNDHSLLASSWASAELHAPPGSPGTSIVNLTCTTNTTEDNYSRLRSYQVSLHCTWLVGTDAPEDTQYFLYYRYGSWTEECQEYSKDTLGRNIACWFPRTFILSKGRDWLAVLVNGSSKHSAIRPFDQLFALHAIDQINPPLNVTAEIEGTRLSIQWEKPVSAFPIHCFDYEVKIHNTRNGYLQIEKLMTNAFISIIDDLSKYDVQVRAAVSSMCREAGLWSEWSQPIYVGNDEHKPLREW

[2] = target: T1, recombinant human IL-5Rα, carrier-free …; test: SPR; Experiment 1, rhIL-5Ra-down format, instrument 3000, mean of 1.57/2.69
muFcγRIV = target: T2, muFcγRIV (UniProt A0A0B4J1G0 21-203); test: SPR
T2 chain: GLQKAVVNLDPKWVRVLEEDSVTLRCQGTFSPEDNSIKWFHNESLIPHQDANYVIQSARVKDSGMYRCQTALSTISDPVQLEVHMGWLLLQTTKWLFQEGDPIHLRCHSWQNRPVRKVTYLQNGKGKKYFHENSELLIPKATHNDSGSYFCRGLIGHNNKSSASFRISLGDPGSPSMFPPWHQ

[3] = target: T1, recombinant human IL-5Rα, carrier-free …; test: SPR; Experiment 0, capture format, instrument 3000

B1: MEDI-563, humanized afucosylated IgG1 anti-IL-5R alpha chain monoclonal antibody (antibody)
heavy: EVQLVQSGAEVKKPGASVKVSCKASGYTFTSYVIHWVRQRPGQGLAWMGYINPYNDGTKYNERFKGKVTITSDRSTSTVYMELSSLRSEDTAVYLCGREGIRYYGLLGDYWGQGTLVTVSS[gap - human IgG1 constant region]
light: DIQMTQSPSSLSASVGDRVTITCGTSEDIINYLNWYQQKPGKAPKLLIYHTSRLQSGVPSRFSGSGSGTDFTLTISSLQPEDFATYYCQQGYTLPYTFGQGTKVEIKRTVAAPSVFIFPPSDEQLKSGTASVVCLLNNFYPREAKVQWKVDNALQSGNSQESVTEQDSKDSTYSLSSTLTLSKADYEKHKVYACEVTHQGLSSPVTKSFNRGEC
modifications: Fc N-glycan without fucose (afucosylated, Potelligent); the letters cannot carry it.
**Q.** What does the source list for B1?
**A.** Kd [1]: 6.35 nM; Kd [2]: 2.13 nM; Kd (muFcγRIV): 32 nM; Kd [3]: 2.9 nM
